The supplement of paper PMC4967469
pIC50: −log10 of the molar value. A lower IC50 marks a more sensitive line; a fit beyond the top or the lowest dose is shown as a bound at that dose. AUC sums up the same curve from the lowest dose to the 256-fold higher top dose; the more sensitive the line, the further below 1. The top dose, if marked as inferred, was derived from the fitted curves, not read from the paper. For part of these data: An entry number marks a drug with two screens in the source, which often give different values.

Tests used:
AICAR = compound: NC(=O)c1ncn([C@@H]2O[C@H](CO)[C@@H](O)[C@H]2O)c1N [AICAR]; test: Viability of human cancer cell lines after 72 h of drug (GDSC screen); conditions: top dose 2000 µM; top dose inferred
Experimental: (§1)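 Human cancer cell lines in 384-well plates, medium with 10% serum, drug for 72 h over a 256-fold dose range (nine 2-fold or five 4-fold steps up to the top dose). Adherent lines were fixed and stained with the nucleic acid dye Syto60, suspension lines read with resazurin; signal relative to control wells, capped at 0 and 100%. One two-parameter sigmoid per drug and line, fitted in a mixed model over all curves with the slope shared within a line.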

AKT inhibitor VIII = compound: O=c1[nH]c2ccccc2n1C1CCN(Cc2ccc(-c3[nH]c4cc5ncnc5cc4nc3-c3ccccc3)cc2)CC1 [AKT inhibitor VIII]; test: as above; conditions: top dose inferred
Experimental: as §1

[1] = top dose 2.56 µM, screen: GDSC drug entry 171
[2] = top dose 10.24 µM, screen: GDSC drug entry 228

Cell Line | AUC (AICAR) | pIC50 (AICAR) | AUC (AKT inhibitor VIII; [1]) | pIC50 (AKT inhibitor VIII; [1]) | AUC (AKT inhibitor VIII; [2]) | pIC50 (AKT inhibitor VIII; [2])
MDST8 (large intestine, adherent) | 0.657 | 3.47 | 0.981 | < 5.59 | 0.973 | < 4.99
ME-1 (acute myeloid leukaemia, suspension) | 0.649 | 3.48 | 0.98 | < 5.59 | 0.916 | < 4.99
ME-180 (cervix, adherent) | 0.666 | 3.43 | 0.856 | 5.66 | 0.663 | 5.73
MEL-JUSO (melanoma, adherent) | 0.97 | < 2.70 | 0.861 | < 5.59 | 0.854 | 5.01
MES-SA (uterus, adherent) | 0.922 | < 2.70 | 0.892 | 5.65 | 0.852 | 5.21
MFE-280 (endometrium, adherent) | 0.981 | < 2.70 | 0.946 | < 5.59 | 0.757 | 5.36
MFE-296 (endometrium, adherent) | 0.903 | < 2.70 | 0.789 | 5.91 | 0.903 | < 4.99
MFH-ino (soft tissue, adherent) | 0.89 | < 2.70 | 0.959 | < 5.59 | 0.965 | < 4.99
MFM-223 (breast, adherent) | 0.591 | 3.66 | 0.989 | < 5.59 | 0.879 | < 4.99
MG-63 (osteosarcoma, adherent) | 0.845 | 2.74 | 0.904 | < 5.59 | 0.984 | < 4.99
MHH-ES-1 (Ewing sarcoma, adherent) | 0.832 | 2.90 | 0.86 | 5.68 | 0.676 | 5.71
MHH-NB-11 (neuroblastoma, adherent) | 0.731 | 3.21 | 0.981 | < 5.59 | 0.969 | < 4.99
MHH-PREB-1 (B-cell leukaemia, suspension) | 0.746 | 3.24 | 0.97 | < 5.59 | 0.764 | 5.47
MIA-PaCa-2 (pancreas, adherent) | 0.908 | < 2.70 | 0.965 | < 5.59 | 0.94 | < 4.99
MKN28 (stomach, adherent) | 0.774 | 3.09 | 0.932 | < 5.59 | 0.955 | < 4.99
MKN45 (stomach, adherent) | 0.972 | < 2.70 | 0.971 | < 5.59 | 0.835 | 5.03
